# This is one part of the list.
# B1: Pul13 (Thermotoga maritima), O33840 (protein)
# chain: ETTIVVHYHRYDGKYDGWNLWIWPVEPVSQEGKAYQFTGEDDFGKVAVVKLPMDLTKVGIIVRLNEWQAKDVAKDRFIEIKDGKAEVWILQGVEEIFYEKP
# Columns and labels:
# Test in all cases: glycan array binding signal (z-score within array); higher = stronger binding
# Conditions in all cases: glycan notation: IUPAC condensed, linker removed
# [1] = biological target: Glc(a1-6)Glc(a1-6)Glc(a1-6)Glc(a1-6)Glc(a1-6)Glc(a1-6)Glc(a1-6)Glc(a1-6)Glc(a1-6)Glc(a1-6)Glc
# In short: (§1)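 Glycan array data came from 3228 arrays in the Consortium for Functional Glycomics database, and only arrays with an available protein sequence were kept. Glycan names were put into IUPAC-condensed notation, and columns mapping to the same glycan were averaged. The binding signal is a within-array Z-score, averaged across arrays of one protein sequence run at different concentrations or buffers and across linkers. A negative Z-score can be read as non-binding.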
# [2] = biological target: Glc(a1-6)Glc(a1-6)Glc(a1-6)Glc(a1-6)Glc(a1-6)Glc(a1-6)Glc(a1-6)Glc(a1-6)Glc(a1-6)Glc(a1-6)Glc(a1-6)Glc
# In short: as §1
# [3] = biological target: Glc(a1-6)Glc(a1-6)Glc(a1-6)Glc(a1-6)Glc(a1-6)Glc(a1-6)Glc(a1-6)Glc(a1-6)Glc(a1-6)Glc(a1-6)Glc(a1-6)Glc(a1-6)Glc
# In short: as §1
# Glc(b1-2)Glc = biological target: Glc(b1-2)Glc
# In short: as §1
# Glc(b1-2)Glc(b1-2)Glc = biological target: Glc(b1-2)Glc(b1-2)Glc
# In short: as §1
# [4] = biological target: Glc(b1-2)Glc(b1-2)Glc(b1-2)Glc
# In short: as §1
# [5] = biological target: Glc(b1-2)Glc(b1-2)Glc(b1-2)Glc(b1-2)Glc
# In short: as §1
# [6] = biological target: Glc(b1-2)Glc(b1-2)Glc(b1-2)Glc(b1-2)Glc(b1-2)Glc
# In short: as §1
# [7] = biological target: Glc(b1-2)Glc(b1-2)Glc(b1-2)Glc(b1-2)Glc(b1-2)Glc(b1-2)Glc
# In short: as §1
# [8] = biological target: Glc(b1-2)Glc(b1-2)Glc(b1-2)Glc(b1-2)Glc(b1-2)Glc(b1-2)Glc(b1-2)Glc
# In short: as §1
# [9] = biological target: Glc(b1-2)Glc(b1-2)Glc(b1-2)Glc(b1-2)Glc(b1-2)Glc(b1-2)Glc(b1-2)Glc(b1-2)Glc
# In short: as §1
# [10] = biological target: Glc(b1-2)Glc(b1-2)Glc(b1-2)Glc(b1-2)Glc(b1-2)Glc(b1-2)Glc(b1-2)Glc(b1-2)Glc(b1-2)Glc
# In short: as §1
# [11] = biological target: Glc(b1-2)Glc(b1-2)Glc(b1-2)Glc(b1-2)Glc(b1-2)Glc(b1-2)Glc(b1-2)Glc(b1-2)Glc(b1-2)Glc(b1-2)Glc
# In short: as §1
# [12] = biological target: Glc(b1-2)Glc(b1-2)Glc(b1-2)Glc(b1-2)Glc(b1-2)Glc(b1-2)Glc(b1-2)Glc(b1-2)Glc(b1-2)Glc(b1-2)Glc(b1-2)Glc
# In short: as §1
# [13] = biological target: Glc(b1-2)Glc(b1-2)Glc(b1-2)Glc(b1-2)Glc(b1-2)Glc(b1-2)Glc(b1-2)Glc(b1-2)Glc(b1-2)Glc(b1-2)Glc(b1-2)Glc(b1-2)Glc
# In short: as §1
# Glc(b1-3)Glc = biological target: Glc(b1-3)Glc
# In short: as §1
# Glc(b1-3)Glc(b1-3)Glc = biological target: Glc(b1-3)Glc(b1-3)Glc
# In short: as §1
# [14] = biological target: Glc(b1-3)Glc(b1-3)Glc(b1-3)Glc
# In short: as §1
# [15] = biological target: Glc(b1-3)Glc(b1-3)Glc(b1-3)Glc(b1-3)Glc
# In short: as §1
# [16] = biological target: Glc(b1-3)Glc(b1-3)Glc(b1-3)Glc(b1-3)Glc(b1-3)Glc
# In short: as §1
# [17] = biological target: Glc(b1-3)Glc(b1-3)Glc(b1-3)Glc(b1-3)Glc(b1-3)Glc(b1-3)Glc
# In short: as §1
# [18] = biological target: Glc(b1-3)Glc(b1-3)Glc(b1-3)Glc(b1-3)Glc(b1-3)Glc(b1-3)Glc(b1-3)Glc
# In short: as §1
# [19] = biological target: Glc(b1-3)Glc(b1-3)Glc(b1-3)Glc(b1-3)Glc(b1-3)Glc(b1-3)Glc(b1-3)Glc(b1-3)Glc
# In short: as §1
# [20] = biological target: Glc(b1-3)Glc(b1-3)Glc(b1-3)Glc(b1-3)Glc(b1-3)Glc(b1-3)Glc(b1-3)Glc(b1-3)Glc(b1-3)Glc
# In short: as §1
# [21] = biological target: Glc(b1-3)Glc(b1-3)Glc(b1-3)Glc(b1-3)Glc(b1-3)Glc(b1-3)Glc(b1-3)Glc(b1-3)Glc(b1-3)Glc(b1-3)Glc
# In short: as §1
# [22] = biological target: Glc(b1-3)Glc(b1-3)Glc(b1-3)Glc(b1-3)Glc(b1-3)Glc(b1-3)Glc(b1-3)Glc(b1-3)Glc(b1-3)Glc(b1-3)Glc(b1-3)Glc
# In short: as §1
# [23] = biological target: Glc(b1-3)Glc(b1-3)Glc(b1-3)Glc(b1-3)Glc(b1-3)Glc(b1-3)Glc(b1-3)Glc(b1-3)Glc(b1-3)Glc(b1-3)Glc(b1-3)Glc(b1-3)Glc
# In short: as §1
# [24] = biological target: Glc(b1-3)Glc(b1-3)Glc(b1-3)Glc(b1-3)Glc(b1-3)Glc(b1-3)Glc(b1-3)[Glc(b1-6)]Glc(b1-3)Glc
# In short: as §1
# [25] = biological target: Glc(b1-3)Glc(b1-3)Glc(b1-3)Glc(b1-3)Glc(b1-3)Glc(b1-3)[Glc(b1-6)]Glc(b1-3)Glc(b1-3)Glc
# In short: as §1
# [26] = biological target: Glc(b1-3)Glc(b1-3)Glc(b1-3)Glc(b1-3)[Glc(b1-6)]Glc(b1-3)Glc(b1-3)Glc(b1-3)Glc(b1-3)Glc
# In short: as §1
# [27] = biological target: Glc(b1-3)Glc(b1-3)Glc(b1-3)[Glc(b1-6)]Glc(b1-3)Glc(b1-3)Glc(b1-3)Glc(b1-3)[Glc(b1-6)]Glc(b1-3)Glc
# In short: as §1
# [28] = biological target: Glc(b1-3)Glc(b1-3)[Glc(b1-6)]Glc(b1-3)Glc(b1-3)Glc(b1-3)Glc(b1-3)Glc(b1-3)Glc(b1-3)Glc
# In short: as §1
# Glc(b1-3)Glc(b1-4)Glc = biological target: Glc(b1-3)Glc(b1-4)Glc
# In short: as §1
# [29] = biological target: Glc(b1-3)Glc(b1-4)Glc(b1-4)Glc
# In short: as §1
# [30] = biological target: Glc(b1-3)Glc(b1-4)Glc(b1-6)Glc(b1-4)Glc
# In short: as §1
# [31] = biological target: Glc(b1-3)[Glc(b1-6)]Glc(a1-3)Glc(b1-3)[Glc(b1-6)]Glc
# In short: as §1
# [32] = biological target: Glc(b1-3)[Glc(b1-6)]Glc(b1-3)Glc(b1-3)Glc(b1-3)Glc(b1-3)Glc(b1-3)Glc(b1-3)Glc
# In short: as §1
# Glc(b1-4)Glc = biological target: Glc(b1-4)Glc
# In short: as §1
# Glc(b1-4)Glc(b1-3)Glc = biological target: Glc(b1-4)Glc(b1-3)Glc
# In short: as §1
# [33] = biological target: Glc(b1-4)Glc(b1-3)Glc(b1-4)Glc
# In short: as §1
# Glc(b1-4)Glc(b1-4)Glc = biological target: Glc(b1-4)Glc(b1-4)Glc
# In short: as §1
# [34] = biological target: Glc(b1-4)Glc(b1-4)Glc(b1-3)Glc
# In short: as §1
# [35] = biological target: Glc(b1-4)Glc(b1-4)Glc(b1-3)Glc(b1-4)Glc(b1-4)Glc(b1-3)Glc
# In short: as §1
# [36] = biological target: Glc(b1-4)Glc(b1-4)Glc(b1-4)Glc
# In short: as §1
# [37] = biological target: Glc(b1-4)Glc(b1-4)Glc(b1-4)Glc(b1-3)Glc
# In short: as §1
binder,measurement,setting,value
B1,glycan array binding signal (z-score),[1],-0.345
same,glycan array binding signal (z-score),[2],-0.351
same,glycan array binding signal (z-score),[3],-0.351
same,glycan array binding signal (z-score),Glc(b1-2)Glc,-0.351
same,glycan array binding signal (z-score),Glc(b1-2)Glc(b1-2)Glc,-0.351
same,glycan array binding signal (z-score),[4],-0.351
same,glycan array binding signal (z-score),[5],-0.351
same,glycan array binding signal (z-score),[6],-0.351
same,glycan array binding signal (z-score),[7],-0.351
same,glycan array binding signal (z-score),[8],-0.351
same,glycan array binding signal (z-score),[9],-0.351
same,glycan array binding signal (z-score),[10],-0.351
same,glycan array binding signal (z-score),[11],-0.351
same,glycan array binding signal (z-score),[12],-0.351
same,glycan array binding signal (z-score),[13],-0.351
same,glycan array binding signal (z-score),Glc(b1-3)Glc,-0.351
same,glycan array binding signal (z-score),Glc(b1-3)Glc(b1-3)Glc,-0.351
same,glycan array binding signal (z-score),[14],-0.351
same,glycan array binding signal (z-score),[15],-0.351
same,glycan array binding signal (z-score),[16],-0.351
same,glycan array binding signal (z-score),[17],-0.351
same,glycan array binding signal (z-score),[18],-0.351
same,glycan array binding signal (z-score),[19],-0.351
same,glycan array binding signal (z-score),[20],-0.351
same,glycan array binding signal (z-score),[21],-0.351
same,glycan array binding signal (z-score),[22],-0.351
same,glycan array binding signal (z-score),[23],-0.351
same,glycan array binding signal (z-score),[24],-0.351
same,glycan array binding signal (z-score),[25],-0.351
same,glycan array binding signal (z-score),[26],-0.351
same,glycan array binding signal (z-score),[27],-0.351
same,glycan array binding signal (z-score),[28],-0.351
same,glycan array binding signal (z-score),Glc(b1-3)Glc(b1-4)Glc,-0.351
same,glycan array binding signal (z-score),[29],-0.351
same,glycan array binding signal (z-score),[30],-0.351
same,glycan array binding signal (z-score),[31],-0.351
same,glycan array binding signal (z-score),[32],-0.351
same,glycan array binding signal (z-score),Glc(b1-4)Glc,-0.351
same,glycan array binding signal (z-score),Glc(b1-4)Glc(b1-3)Glc,-0.345
same,glycan array binding signal (z-score),[33],-0.351
same,glycan array binding signal (z-score),Glc(b1-4)Glc(b1-4)Glc,-0.351
same,glycan array binding signal (z-score),[34],-0.351
same,glycan array binding signal (z-score),[35],-0.351
same,glycan array binding signal (z-score),[36],-0.351
same,glycan array binding signal (z-score),[37],-0.351

# From the supplement of paper PMC8728848
